In PubChem BioAssay AID1508624 (National Center for Advancing Translational Sciences (NCATS), 2021):
Hit rate of the full screen: of about 48,000 compounds, about 120 (0.25%) were called active. Not shown: some 4% with an inconclusive outcome. The call rests on the fitted dose curve; in most records, active means well fitted activation curve with a large enough effect; inconclusive means small, poorly fitted or top-dose-only effect, or another doubt; inactive means no such curve, though single readings can be large or run the other way. The list shows a part of the results.

Experiment: Primary qHTS for Identification of Small Molecule Activators of Huntingtin-Antisense Promoter Activity; further: nearly all actives have a fitted effect of over 55% in size
Details: HEK293 HTT-AS promoter firefly luciferase reporter, 24 h; series mostly up to 57.5 µM; activity change, positive = activation: at the top concentration
Method in brief: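 HEK293 luciferase promoter-reporter cells (2,500/well) plated 24 h, then compounds added at up to 57.5 uM final for 24 h at 37 °C. Firefly luminescence by Dual-Glo, normalized to vehicle (0%) and zero RLU (-100%).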

Activity change, positive = activation, inactive:
CCOc1cccc2c1Oc1nc(-c3ccccc3)nc(SCC(=O)Nc3ccc(F)cc3)c1C2 -0.862%
O=C(c1ccccc1Cl)N1CCCCC1CCN1CCOCC1 (stereo not drawn) -3.24%
COc1ccc(OC)c(CCNC(=O)c2cnn(-c3ccc(C)cc3C)c2C2CCN(C(=O)OC(C)(C)C)CC2)c1 -26.9%
CCOC(=O)c1c(NC(=O)COc2ccc(C)cc2C(C)(C)C)sc2c1CCC(C)C2 (stereo not drawn) -8.97%
Cc1c(C(=O)N2CCC(C)CC2)c(S(=O)(=O)Nc2cccc(C(F)(F)F)c2)c(C)n1C -27.2%
COc1ccc(CNC(=O)Cn2c(=O)ccc3cc(S(=O)(=O)N4CCCC4)ccc32)cc1 -16%
CC(=O)c1ccc(N2CCN(S(=O)(=O)c3cc(-c4noc(C)n4)ccc3C)CC2)cc1 -14.3%
Cc1ccc(Cn2c(CNC(=O)Cc3cccc(C)c3)nc3cccnc32)cc1 -16%
Cc1nn(S(=O)(=O)c2ccc(C(C)(C)C)cc2)c(C)c1S(=O)(=O)N1CCC(C)CC1 -6.32%
COc1ccc2[nH]cc(CCNC(=O)c3cnn(-c4ccc(C)cc4)c3C3CCN(C(=O)OC(C)(C)C)CC3)c2c1 -33.1%
COCCN1C(=O)c2oc3ccc(C)cc3c(=O)c2C12C(=O)N(C)c1ccccc12 (stereo not drawn) -12.2%
CC(=O)Nc1ccc(NC(=O)C2(c3cccs3)CCOCC2)cc1 -7.26%
CC(C)N(Cc1ccccc1)C(=O)C1CCCN(c2ncnc3onc(-c4ccc(F)cc4)c23)C1 (stereo not drawn) -28.5%
COc1ccccc1CNC(=O)c1cnc(SC)nc1C -13.7%
CC(=O)Nc1ccc(NC(=O)C(Cc2ccccc2)NS(=O)(=O)c2ccc3c(c2)oc(=O)n3C)cc1 (stereo not drawn) 15.8%
CCOC(=O)CC(NC(=O)CCc1c(C)nc2c(c1C)c(=O)n(C)c(=O)n2C)c1ccc(OCC)c(OC)c1 (stereo not drawn) -8.97%
CC(C)c1ccc(NS(=O)(=O)c2ccc3[nH]cc(C(=O)NCCc4ccccc4)c(=O)c3c2)cc1 -19%
CCOC(=O)c1cc(-c2ccc(F)cc2)n(CCC(=O)Nc2nc3ccc(OC)cc3s2)c1C -38.7%
Cc1ccc(-n2nc(C)c3c(C)cc(=O)n(CC(=O)NC(C)c4ccccc4)c32)cc1 (stereo not drawn) -1.82%
CCOc1cc(-c2ccc(OC(=O)c3ccc(OC)cc3)c(OC)c2)cc(=O)c2c(C)oc(C)c12 -24.7%
CCn1nc(C)c2c(-c3ccccc3)cc(=O)n(C(C)C(=O)NCCc3ccc(OC)c(OC)c3)c21 (stereo not drawn) -22.3%
CCn1cc(C(=O)O)c(=O)c2cc(F)c(N3CCNCC3)cc21
CC(C)(C)OC(=O)N1CCC(c2c(C(=O)N3CCCCC3)cnn2-c2ccccc2Cl)CC1 -9.14%
Cn1c(=O)oc2cc(S(=O)(=O)CCC(=O)NCCc3ccc(Cl)cc3)ccc21 -3.22%
COc1ccccc1OCc1nc(C#N)c(NCc2ccc(C)cc2)o1 -13.3%
Cn1c(=O)c2sccc2n2c(CCCC(=O)NC3CCCCC3)nnc12 -16.6%
Cc1ccc(Cl)cc1N1CCN(S(=O)(=O)c2cc(Br)cc3c2N(C(=O)C2CC2)CC3)CC1 -15.7%
COc1ccc(-c2nn(-c3ccccc3)cc2C2NC(=O)NC(C)=C2C(=O)OC(C)C)cc1Cl (stereo not drawn) -46.5%
COc1ccc(-c2nnc(SCC(=O)N(C)C3CCCCC3)o2)cc1OC -7.23%
CCOc1ccc(C(=O)c2oc3ccccc3c2NC(=O)c2cc(-c3ccc(Cl)cc3)on2)cc1 -9.26%
O=S(=O)(NCC(c1ccco1)S(=O)(=O)c1cccs1)c1ccc(Cl)cc1 (stereo not drawn) -16.9%
CN(Cc1ccccc1)c1ncnc2c1nnn2C 9.84%
O=c1oc2c3c(ccc2c2ccccc12)OCN(Cc1ccccc1Cl)C3 -4.04%
COC(=O)c1sccc1S(=O)(=O)N(CC(=O)Nc1ccccc1F)c1ccccc1 -13.5%
Cc1ccc(CSCCC(=O)NCc2ccc(F)cc2Cl)cc1 -20.5%
CC(=O)c1cccc(NS(=O)(=O)c2cc(-c3cnc(C4CC4)o3)ccc2C)c1 -50.3%
CCc1nn(CC(=O)N(C)Cc2ccccc2)c(=O)c2cc3sccc3n12 -28.4%
CCn1cc(C(=O)NCCCOC)c(=O)c2cc(S(=O)(=O)N3CCCC3)ccc21 13.6% [at 11.5 µM, percent change from vehicle, -100% = no light]
Cc1cccc(C(=O)n2nc(-c3cccnc3)nc2NCc2ccccc2)c1 -4.37%
Cc1ccc(C(=O)NCCc2ccc(S(N)(=O)=O)cc2)cc1-n1cnc2cccnc21 5.92%
O=C(CCCCn1c(=O)c2ccccc2n(CC(=O)Nc2ccc(F)cc2F)c1=O)NCCc1ccccc1 -2.38%
COC(=O)c1c(NC(=O)Cc2coc3ccc(C(C)C)cc23)sc2c1CCC2 0%
Cc1ccc(N=C2NC(=O)CC(C(=O)Nc3cc(C(F)(F)F)ccc3Cl)S2)cc1 (stereo not drawn) -25.7%
O=S(=O)(c1ccc(Cl)cc1)c1nnn2c1nc(NCc1ccc3c(c1)OCO3)c1sccc12 -5.93%
Cc1ccc(N(CC(=O)Nc2cc(C)ccc2C)S(=O)(=O)c2c(C)noc2C)cc1 -24.4%
COc1cc(Cl)c(NS(=O)(=O)c2cc(-c3cc(C)no3)ccc2OC)c(OC)c1 -35.6%
CCCCN(CC)CCNC(=O)C1CCCN(c2ncnc3onc(C)c23)C1 (stereo not drawn) -6.41%
COc1ccc(-n2c(SCC(=O)c3ccccc3)nc3c([nH]c4ccccc43)c2=O)cc1 -7.83%
CCOc1ccccc1NC(=O)C1CCN(S(=O)(=O)c2ccc3c(c2)CCCN3C(C)=O)CC1 -17.8%
Cc1ccc(COC(=O)c2[nH]c3c(c2C)C(=O)CC(c2ccc(N(C)C)cc2)C3)cc1 (stereo not drawn) -5.16%
CCS(=O)(=O)c1ncc(Cl)c(C(=O)Nc2ccccc2)n1 -93.5%
CCC(=O)N1c2ccccc2CC1C(=O)NCc1ccc(N(C)C)cc1 (stereo not drawn) -21.1%
CC(=O)c1ccc(NC(=O)c2ccc(-n3cnnc3)cc2)cc1 -5.56%
COc1ccccc1-c1cc(C(=O)Nc2cc(OC)c(OC)c(OC)c2)no1 -24.9%
CCN(CC)CCCNC(=O)c1nn(C)c2c1CSc1ccccc1-2 -1.98%
CCN(CC)c1ccc(C(=O)NCc2ccc3c(c2)CCN3C(=O)c2ccc(F)cc2)cc1 -7.47%
Cc1ccc(-n2nc(C)c3c(C(=O)NCCc4ccccc4)cc(C)nc32)cc1 -15.6%
Cc1ccc(CNC(=O)c2ccc3c(c2)nc2n3CCOC2)cc1 -5.53%
